Values joined by “and” are separate entries in the source; they are usually repeats but may differ in a detail not shown here. Equal values may be shown once. Among all 280,000 compounds or so, about 1,100 (0.39%) were called active. Inconclusive results, whose numbers are uncertain, are shown with a selection of clear calls. Calls come from the whole dose curve; as a rule, active = well fitted inhibition curve with a large enough effect; inconclusive = small, poorly fitted or top-dose-only effect, or effect the other way; inactive = flat fitted curve, though single readings scatter. Where the call is inconclusive, the potency comes from a doubtful curve fit. Some compounds were tested as several samples or in several runs, with calls that do not always agree.
Target: Microtubule-associated protein tau (Homo sapiens) (UniProt P10636)
Test: qHTS for Inhibitors of Tau Fibril Formation, Fluorescence Polarization; note: nearly all actives have a fitted effect of over 55% in size
Conditions: K18 P301L tau heparin fibrillization, Alexa594 FP, 6 h; series mostly up to 57.7 µM; activity, negative = inhibition: at the top concentration
Procedure, shortened: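 Heparin (20 uM) drove fibril formation of recombinant tau K18 P301L, 15 uM unlabeled with 0.24 uM Alexa 594 label, for 6 hr at 37 C in 100 mM sodium acetate pH 7. Fluorescence polarization (555/632 nm) read 1 hr after 30 uM ThT.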
% is set by controls: 0 for no effect and ±100 for the full control effect; potency is the fitted concentration of half-maximal effect; tags give direction and shape of the fitted curve.

UniProt P10636, sequence (P10636 whole entry, looked up): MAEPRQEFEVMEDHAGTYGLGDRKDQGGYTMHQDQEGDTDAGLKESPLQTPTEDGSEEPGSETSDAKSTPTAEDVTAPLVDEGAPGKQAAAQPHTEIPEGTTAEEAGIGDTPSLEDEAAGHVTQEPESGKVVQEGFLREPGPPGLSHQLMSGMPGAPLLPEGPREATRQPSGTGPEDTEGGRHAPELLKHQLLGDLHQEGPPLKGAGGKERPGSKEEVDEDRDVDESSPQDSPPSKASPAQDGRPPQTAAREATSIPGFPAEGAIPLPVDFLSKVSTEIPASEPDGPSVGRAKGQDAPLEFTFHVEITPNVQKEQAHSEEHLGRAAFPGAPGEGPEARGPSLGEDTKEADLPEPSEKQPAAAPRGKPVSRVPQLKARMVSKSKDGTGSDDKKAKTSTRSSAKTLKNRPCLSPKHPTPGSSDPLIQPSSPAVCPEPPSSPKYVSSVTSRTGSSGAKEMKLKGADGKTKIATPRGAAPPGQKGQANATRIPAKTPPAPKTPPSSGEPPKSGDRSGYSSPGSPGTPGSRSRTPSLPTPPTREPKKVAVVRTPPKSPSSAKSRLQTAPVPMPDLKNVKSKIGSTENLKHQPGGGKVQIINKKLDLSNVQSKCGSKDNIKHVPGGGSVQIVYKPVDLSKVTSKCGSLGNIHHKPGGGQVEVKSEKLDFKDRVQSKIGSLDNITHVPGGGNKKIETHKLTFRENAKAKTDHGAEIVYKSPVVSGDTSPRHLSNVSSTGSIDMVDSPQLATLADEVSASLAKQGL

| SMILES | Potency | activity, negative = inhibition |
| --- | --- | --- |
| COc1ccc(C(=O)COC(=O)CNC(=O)c2cccc(OC(F)F)c2)cc1 | inconclusive: 44.7 µM [inhibitor, single point] |  |
| CCO[C@@H]1OC(C(=O)NCc2ccccc2)=C[C@H](c2csc3ccccc23)[C@H]1CCCO | inconclusive: 20 µM [activator, single point] |  |
| O=C(Nc1ccc(C(F)(F)F)cc1)c1cc(S(=O)(=O)NCC2COc3ccccc3O2)ccc1F (stereo not drawn) | active: 12.6 µM |  |
| O=C(/C=C/c1cccs1)Nc1ccc(N2CCOCC2)c(S(=O)(=O)Nc2cc(Cl)ccc2Cl)c1 | inconclusive: 39.8 µM [inhibitor, single point] |  |
| O=S(=O)(Cc1ccc(Cl)cc1)c1ccccc1-c1nnc(-c2ccc(Cl)cc2)o1 | inconclusive: 39.8 µM [inhibitor, single point] |  |
| Nc1ccc2nc(SCc3ccccc3F)sc2c1 | inconclusive: 0.398 µM [activator, partial curve] |  |
| Cc1sc(N/N=C/c2cccs2)nc1-c1ccccc1 |  | inactive: 12.7% |
| CC(C)(C)C(=O)C(Cc1ccccc1)n1cncn1 (stereo not drawn) | inconclusive: 5.62 µM [inhibitor, full curve] |  |
| Cc1ccc(Cl)cc1N1CCN(CCNC(=O)Nc2ccc(Cl)cc2)CC1 | active: 12.6 µM |  |
| COc1ccc(/C=N/NS(=O)(=O)c2ccc(F)cc2)cc1COc1cc(F)ccc1[N+](=O)[O-] | inconclusive: 6.31 µM [inhibitor, partial curve] |  |
| Cc1ccccc1NC(=O)Cn1nc(-c2ccc(F)cc2)c2cnc3ccccc3c21 |  | inactive: -14.4% |
| Oc1ccccc1N=Cc1c(O)ccc2oc3c(c12)CCCC3 | inconclusive: 44.7 µM [inhibitor, single point] |  |
| CCCOC(=O)c1cccc(Nc2nc(-c3cccnc3)nc3ccccc23)c1 | inconclusive: 7.08 µM [inhibitor, partial curve] |  |
| COc1ccc(/C=N/OC(=O)Nc2ccc(Cl)cc2)c(OC)c1 | inconclusive: 17.8 µM [inhibitor, partial curve] |  |
| Cc1[nH]c2ccccc2c1/C=N/NC(=O)c1cc(-c2cccs2)[nH]n1 | inconclusive: 39.8 µM [activator, single point] |  |
| CNC[C@H](O)c1ccc(O)c(O)c1 | active: 12.6 µM |  |
| Cc1sc2nc(SCC(=O)O)[nH]c(=O)c2c1C | inconclusive: 8.91 µM [inhibitor, single point] |  |
| CCOc1ccc(NC(=O)NC2CC(=O)N(c3ccc(OC)cc3)C2)cc1 (stereo not drawn) | inconclusive: 35.5 µM [activator, single point] |  |
| CC1(OC(=O)CCc2ccccc2)C(=O)C=C2C=C(C3CC3)OC=C2C1=O (stereo not drawn) | inconclusive: 7.08 µM [inhibitor, single point] |  |
| COc1ccccc1N1CCN(C(=O)c2cc3c(s2)CCC3)CC1 | inconclusive: 15.8 µM [activator, single point] |  |
| COc1ccc(-c2nc(SCc3ccccc3)n(S(C)(=O)=O)n2)cc1 | inconclusive: 25.1 µM [inhibitor, single point] |  |
| COc1ccccc1NC(=O)COc1ccc(/C=N/NS(=O)(=O)c2ccc(C)cc2)cc1 | inconclusive: 11.2 µM [inhibitor, partial curve, poor fit] |  |
| COc1ccc(NC(=S)Nc2ccc3nsnc3c2)cc1 |  | inactive: -17.4% |

| SMILES | Potency | activity, negative = inhibition |
| --- | --- | --- |
| O=C(CSc1nc(O)c(C(c2ccccc2)c2ccccc2)c(=O)[nH]1)N1CCOCC1 | inconclusive: 31.6 µM [inhibitor, single point] |  |
| O=C(NCCCn1ccnc1)c1nn2c(C(F)(F)F)cc(-c3ccc(Br)cc3)nc2c1Cl | inconclusive: 22.4 µM [activator, partial curve, poor fit] |  |
| COCCNC(=O)c1c(N)n(-c2cccc(C)c2)c2nc3ccccc3nc12 | inconclusive: 1.12 µM [inhibitor, full curve] |  |
| CCCNc1cc(=S)nc(N)[nH]1 | inconclusive: 7.08 µM [inhibitor, single point] |  |
| COc1ccc(C(=O)CN2C(=O)N(c3cc(C)ccc3C)S(=O)(=O)c3ccccc32)cc1 | inconclusive: 31.6 µM [inhibitor, partial curve, poor fit] |  |
| Cc1cccc(N2C(=O)/C(=C/c3ccccn3)SC2=S)c1 | inconclusive: 8.91 µM [inhibitor, single point] |  |
| COc1ccc(CN2C(=O)CS(=O)CC2=O)cc1OC |  | inactive: 1.74% |
| CC(C)(C)OC(=O)N1CCC(C(=O)N2CCOCC2)CC1 |  | inactive: 8.19% |
| c1ccc2c(c1)OCC(c1nn3c(Cn4nnc5ccccc54)nnc3s1)O2 (stereo not drawn) |  | inactive: 12% |
| C=CCn1c(SCC(=O)Nc2ccc3c(c2)OCO3)nnc1-c1ccccc1O | inconclusive: 39.8 µM [activator, single point] |  |
| C=C1C(=O)C=C2CN(C(=O)c3ccccc3)[C@@](Cc3ccc(OC)cc3)(C(=O)OC)[C@@H]12 | inconclusive: 17.8 µM [inhibitor, partial curve] |  |
| COc1ccc(CCN2C(=O)N(c3ccc(F)cc3)C(=O)C2CC(=O)Nc2ccc(F)c(F)c2)cc1 (stereo not drawn) | inconclusive: 12.6 µM [inhibitor, partial curve] |  |
| CCCc1c(C(=O)Nc2ccc(C(F)(F)F)cc2)cnn1-c1ccccc1 | inconclusive: 28.2 µM [inhibitor, partial curve] |  |
| CCOc1ccc(N(CC)C(=O)CSc2n[nH]c(-c3ccccc3)n2)cc1 |  | inactive: 1.79% |
| O=S(=O)(NC1CCCC1)c1ccc(S(=O)(=O)N2CCc3ccccc32)cc1 |  | inactive: -10.5% |
| Cc1oc(-c2ccc(C(=O)NCc3ccccc3)cc2)nc1CS(=O)(=O)c1ccccc1 | inconclusive: 39.8 µM [inhibitor, single point] |  |
| C=CCN1CCc2nc(N)sc2CC1 | inactive and inconclusive: 28.2 µM [inhibitor, single point] |  |
| COC1=C(Nc2ccc(C)cc2)C(=O)c2ccccc2C1=O | inconclusive: 10 µM [inhibitor, partial curve] |  |
| COc1ccc(/C=C/C(=O)NC(=S)Nc2ccc(S(=O)(=O)Nc3cc(OC)ncn3)cc2)cc1 | inconclusive: 35.5 µM [inhibitor, single point] |  |
| COc1ccc(CC(=O)Nc2cccc(-c3nnc(-c4ccccc4)o3)c2)cc1OC | inconclusive: 2.24 µM [inhibitor, partial curve, poor fit] |  |
| CN(C)Cc1ccccc1-c1nccc(NCc2cccs2)n1 |  | inactive: 2.79% |
| Cc1cc(C)c2c(-n3cccc3)c(C(=O)NCCc3ccccc3)sc2n1 | inconclusive: 31.6 µM [inhibitor, partial curve] |  |
| CC(C)CC(=O)Nc1c(C(=O)N2CCN(c3ccccc3F)CC2)oc2ccccc12 | inconclusive: 39.8 µM [activator, single point] |  |

| SMILES | Potency | activity, negative = inhibition |
| --- | --- | --- |
| CCCOc1ccc(C(=O)C(CN2CCCC2)c2ccccc2)cc1 (stereo not drawn) |  | inactive: 7.1% |
| O=C(Nc1nnc(SCc2ccc(F)cc2)s1)c1ccccn1 |  | inactive: -0.387% |
| CC1(C)CC(=O)C2=C(C1)Nc1nc(SCCN3CCOCC3)[nH]c(=O)c1C2c1cccs1 (stereo not drawn) |  | inactive: 8.99% |
| O=C(Nc1nonc1-c1ccc(Br)cc1)c1ccco1 | inconclusive: 11.2 µM [inhibitor, partial curve, poor fit] |  |
| O=C1CC(N2CCN(c3ccc(O)cc3)CC2)C(=O)N1c1ccc2c(c1)OCO2 (stereo not drawn) |  | inactive: -13.7% |
| CCN1CCN(C(c2ccccc2)c2c(O)cc(C)n(CCOC)c2=O)CC1 (stereo not drawn) | inconclusive: 25.1 µM [inhibitor, single point] |  |
| CSc1cccc(NC(=O)Cn2nnc(C(=O)NCCc3ccccc3)c2N)c1 | inconclusive: 39.8 µM [inhibitor, single point] |  |
| CCOC(=O)C1CCN(Cc2cccc(OC)c2)CC1 | inconclusive: 5.01 µM [inhibitor, single point] |  |
| O=C(Nc1cccc(S(=O)(=O)c2cccc(NC(=O)c3ccco3)c2)c1)c1ccco1 | inconclusive: 17.8 µM [inhibitor, partial curve] |  |
| COc1ccc(OC)c(/C=N/NC(=O)CCc2ccc(O)c(O)c2)c1 | inconclusive: 4.47 µM [activator, full curve] |  |
| COc1ccc(/C=N/Nc2ccccc2)cc1Cn1nc(C)c([N+](=O)[O-])c1C | inconclusive: 35.5 µM [activator, single point] |  |
| O=C(CSc1ncnc2c1oc1ccccc12)Nc1cccc(C(F)(F)F)c1 | inconclusive: 12.6 µM [inhibitor, partial curve] |  |
| COc1cccc(-c2nc(-c3ccc(NC(=O)Cc4ccccc4OC)cc3)no2)c1 | inconclusive: 17.8 µM [inhibitor, partial curve] |  |
| N#Cc1cccc(C(c2nnnn2C2CCCC2)N2CCC(Cc3ccccc3)CC2)c1 (stereo not drawn) |  | inactive: 2.35% |
| C=C1CSc2nc(=O)c3c4c(sc3n21)CCCC4 |  | inactive: 7.49% |
| COc1cc(/C=N/NC(N)=S)cc(Br)c1OCc1ccccc1F | inconclusive: 28.2 µM [inhibitor, partial curve] |  |
| Cc1ccc2nc(SC(C(=O)c3ccccc3)c3ccccc3)nc(C)c2c1 (stereo not drawn) | inconclusive: 44.7 µM [inhibitor, single point] |  |
| CCOC(=O)Cc1csc(-n2sc3ccccc3c2=O)n1 | active: 28.2 µM |  |
| COc1cccc(C(=O)n2nc(-c3ccco3)nc2NCc2cccs2)c1 |  | inactive: -5% |
| Cc1nccn1CCC(=O)Nc1ccc(Cl)cc1 |  | inactive: 5.32% |
| Cc1nc2ccccc2n1C(=O)c1cc(-c2ccc(Br)cc2)nc2ccccc12 | inconclusive: 11.2 µM [inhibitor, partial curve] |  |
| C=CCOc1ccc(/C=N/NC(=O)CN(c2cc(Cl)ccc2OC)S(=O)(=O)c2ccc(C)c([N+](=O)[O-])c2)cc1 | inconclusive: 44.7 µM [inhibitor, single point] |  |
